Out of some 150,000 compounds screened, about 540 (0.36%) showed an effect of 50% or more. Some of the results follow.

For this assay, the system named is Plasmodium falciparum. Put plainly: Primary screen in NF54 nanoGlo assay, in single point, at 2uM, 72h; a lower Z score goes with more inhibition. The class given is functional, Erythrocyte. The settings on record: timepoint 72 hour.
As for `COc1ccc(CNS(=O)(=O)C[C@H]2CCOC2)cc1OC`, the % Inhibition (as a rule, the drop in the measured response relative to a control, in per cent) was -13% and the Z score is 1.49.
For the molecule `CCCc1ccc(CN2CC[C@H](NC(=O)c3cc(C)on3)[C@@H](O)C2)o1`, the “% Inhibition” value was -10% and the Z score is reported as 1.24.
In the same order, the values of `Cc1cccc(NC(=O)CN2CCN(C(=O)c3cocn3)CC2)c1C` are 30% and -3.34.
The corresponding values for `Cc1nsc(N[C@@H]2C=C[C@H](CO)C2)n1` are 34% and -0.65.
Consider `CC(C)(C)[C@@H](O)CCNC(=O)Cc1cccs1`, for which the “% Inhibition” value is recorded as -4% and the Z score came out at 0.57.
With `c1ccc(CCN2CCC[C@@]3(CCN(c4cnccn4)C3)C2)cc1`, the “% Inhibition” value is recorded as -9% and the Z score is listed as 1.14.
The corresponding values for `COc1ccc(-c2noc(-c3ccc(=O)n(CC(=O)Nc4ccc(C)c(Cl)c4)c3)n2)cc1` are -7% and 1.05.
`NS(=O)(=O)c1ccc(-n2nc(CC3CC3)nc2Cc2cccnc2)cc1`: the “% Inhibition” value is -5% and the Z score was 0.91.
In the case of `CCCCc1nn(CC(=O)N2CCC[C@H](O)C2)c(=O)n1Cc1ccccc1`, the “% Inhibition” value is recorded as -4% and the Z score was 0.79.
In the same order, the values of `Cc1ccc(Cc2ccccc2C(=O)N[C@H]2COCC[C@@H]2O)cc1` are -5% and 1.06.
The corresponding values for `CCn1ncc(CNc2nc(-c3cnn(CC)c3C)cc(C(F)F)n2)c1C` are 30% and -3.4.
As for `C[C@H]1C(=O)N[C@@H](Cc2ccccc2)C(=O)NCCN(Cc2ccncc2)CC(=O)N[C@@H](Cc2c[nH]c3ccccc23)C(=O)N1C`, the “% Inhibition” value was -14% and the Z score was 2.64.
Consider `Cn1ccnc1CC[C@H]1CCCCN1Cc1ccc(-c2cc[nH]n2)o1`, for which the “% Inhibition” value was -4% and the Z score was 0.67.
The corresponding values for `COc1ccc(CC(=O)N2C[C@H]3CC[C@@H](C2)N(Cc2ccccc2)C3=O)cc1` are 8% and -1.12.
In the same order, the values of `CCCc1cc(C(=O)N2CCO[C@H](c3ccccc3)C2)[nH]n1` are -8% and 1.39.
For the molecule `CC(C)c1nsc(CN2CC[C@H](NC(=O)c3ccccc3)C2)n1`, the “% Inhibition” value is on record as -8% and the Z score was 1.26.
In the same order, the values of `CC(=O)N1CCN(Cc2ccccc2NC(=O)c2oc(CC(C)C)nc2C)CC1` are -2% and 0.27.
The corresponding values for `CC1CCN(C(=O)c2cccc(NC(=O)CC3CCCC3)c2)CC1` are -14% and 1.98.
The corresponding values for `COc1ccc(NC(=O)Cn2cc(C(=O)c3ccncc3)c(=O)c3cc(Br)ccc32)cc1` are -4% and 0.64.
In the case of `Cc1c(Br)c(C(=O)N[C@@H]2CCCOC2)nn1C`, the “% Inhibition” value is recorded as -3% and the Z score came to 0.34.
Regarding `FC(F)(F)c1nnc(NCc2ccc3c(c2)OCCO3)s1`, the “% Inhibition” value was -3% and the Z score was determined as 0.3.
The corresponding values for `O=C(CN1CCCC[C@@H]1Cn1cncn1)Nc1nncs1` are -3% and 0.5.
As to `CCCCN(CC)c1ncc(S(=O)(=O)c2cccc(C)c2)c(N)n1`, the “% Inhibition” value is listed as 34% and the Z score was -3.86.
For `CC(C)CN1CC2(CCN(C(=O)C(=O)c3ccco3)CC2)CC1=O`, the “% Inhibition” value is -5% and the Z score worked out at 0.88.
As for `COc1ccc2nc(C(=O)N3CCN(C4CCCCC4)CC3)cn2n1`, the “% Inhibition” value is -5% and the Z score was 0.78.
In the same order, the values of `CC12CN(C(=O)c3ccccc3)C3(C#N)CC1CCC23C` (stereo unspecified) are 4% and -0.57.
The corresponding values for `COCCOCC(=O)N1CC[C@](C)(O)[C@H](Cc2ccccc2)C1` are 2% and -0.47.
`OC1CCCC1Nc1cncc(Br)c1` (stereo unspecified): the “% Inhibition” value is -4% and the Z score came to 0.44.
Take `Cn1cc(C(=O)NC2CCN(Cc3nnc(C(C)(C)C)o3)CC2)cn1`: the “% Inhibition” value is recorded as -6% and the Z score was found to be 1.
The corresponding values for `Cc1nnc2ccc(NC3CCCC3C(N)=O)nn12` (stereo unspecified) are -9% and 1.1.
For the molecule `CCCn1cc(-c2ccnc(NC3CC(C)(C)NC(C)(C)C3)n2)c(C)n1`, the “% Inhibition” value was found to be 27% and the Z score is on record as -2.57.
`Cc1ccccc1N1CCN(C(=O)c2c(C)cc(C)n2Cc2ccc(F)cc2)CC1`: the “% Inhibition” value was -9% and the Z score stood at 0.89.
Regarding `CNc1cc([C@H]2C[C@@H](NS(=O)(=O)CCOc3ccccc3F)C2)ncn1`, the “% Inhibition” value is listed as 0% and the Z score is recorded as -0.08.
For the molecule `CC1(C(=O)N2CCCC3CCCC32)CCCC1` (stereo unspecified), the “% Inhibition” value was -8% and the Z score turned out to be 1.21.
In the same order, the values of `CCC(C)C1CN(Cc2ccc(C)nc2)CCN1C(=O)C(C)N` (stereo unspecified) are -4% and 0.37.
The corresponding values for `O=C(O)C1(C(=O)NCC2CCN(Cc3ccncc3)CC2)CCCCCC1` are 13% and -1.6.
As to `N#Cc1cc(N[C@H]2CCCC[C@H]2CCO)ccn1`, the “% Inhibition” value is given as -6% and the Z score turned out to be 1.19.
In the case of `O=C(NCc1ccccn1)c1ccnc(OCC2CC2)c1`, the “% Inhibition” value was -10% and the Z score worked out at 1.94.
In the same order, the values of `CCc1ccc(CNc2nc3[nH]c(CNc4cccc(Cl)c4)cc(=O)n3n2)cc1` are -3% and 0.53.
In the same order, the values of `C=CCCN[C@@](C)(C(N)=O)c1cccc(Cl)c1` are -8% and 1.22.
Consider `Oc1cc(-c2nc3ccccc3s2)cc2c1OCCNC2`, for which the “% Inhibition” value came out at 3% and the Z score is recorded as -0.57.
The corresponding values for `Cc1cnc(N2CC3(CCOCC3)C[C@@H]2C)s1` are -7% and 1.3.
The corresponding values for `C[C@@H](C(=O)Nc1ncc[nH]1)c1ccc2c(c1)[nH]c1ccc(Cl)cc12` are 69% and -1.75.
For `CN(C)C(=O)c1ccnc(NC(=O)c2cc(C3CCCCC3)n[nH]2)c1`, the “% Inhibition” value is 8% and the Z score is listed as -0.85.
The corresponding values for `CN(C)c1ccc2c(c1)OCCN2C(=O)c1ccc2c(c1)C(=O)N(C[C@H]1CCCO1)C2=O` are -12% and 2.28.
As for `CC(C)c1nccc(C(=O)N2CCn3cncc3C2)n1`, the “% Inhibition” value is on record as -3% and the Z score is on record as 0.68.
As to `Cc1cc(C)nc(NCC(=O)Nc2ncc(C)s2)n1`, the “% Inhibition” value is -12% and the Z score turned out to be 2.21.
In the case of `CCOC(=O)[C@H]1CCCN1c1cc(C(=O)OC)ncn1`, the “% Inhibition” value was -12% and the Z score turned out to be 1.6.
In the same order, the values of `CNCCN(C)C(=O)Cc1c[nH]c(=O)n(C)c1=O` are -9% and 0.95.
`Cc1ccc2c(c1)c(=O)c(C(=O)NCCCn1nnc3ccccc31)cn2C`: the “% Inhibition” value was 0% and the Z score is listed as -0.02.
In the same order, the values of `Cc1cc(C(=O)N2CCC[C@H](OC(=O)N(C)C)C2)c(C(F)(F)F)o1` are -5% and 0.67.
For `Cc1cccc(S(=O)(=O)NC(=O)CCn2cccn2)c1Cl`, the “% Inhibition” value is reported as -5% and the Z score came out at 0.72.
In the same order, the values of `Cc1nc2c(CCNC(=O)[C@H]3CCOC4(CCC4)C3)cccc2o1` are 17% and -1.94.
With `CC[C@H](NC(=O)CCc1n[nH]c(C)c1C)c1ccc(S(C)(=O)=O)cc1`, the “% Inhibition” value is reported as -15% and the Z score came out at 2.77.
In the same order, the values of `Cc1nn(C)cc1S(=O)(=O)NC(c1cnc2ccccc2c1)[C@H]1C[C@@H](O)C1` (stereo partly specified) are -2% and 0.3.
As to `CCC1=NN(C(=O)c2ccccc2)[C@@](O)(c2ccncc2)C1`, the “% Inhibition” value is given as -10% and the Z score came to 2.
The corresponding values for `c1ccc(-c2ccc(-c3[nH]c(-c4c[nH]c5ccccc45)nc3-c3ccccc3)cc2)cc1` are 2% and -0.29.
Consider `COCCN1C[C@H]2CCN(C/C=C/c3ccccc3)[C@H]2C1`, for which the “% Inhibition” value was 2% and the Z score is reported as -0.47.
In the same order, the values of `Cc1cccc(-c2csc(N3CCN(C(c4ccccc4)c4ccccc4)CC3)n2)c1` are 10% and -1.68.
Take `Cn1nnc(C(=O)NC[C@H]2C[C@@H]2c2ccc(Cl)cc2Cl)n1`: the “% Inhibition” value came out at 1% and the Z score is -0.08.
On to `Cc1c(C(=O)Nc2ncccc2OCc2cccc(Cl)c2)cnn1CC(C)C`, for which the “% Inhibition” value is -13% and the Z score turned out to be 1.54.
The corresponding values for `O[C@H]1[C@H](NC2CCCC2)[C@H]2CO[C@H](O2)[C@@H]1n1cnc2ccccc21` are 29% and -3.27.
For the molecule `CN(C)CCN(C)C(=O)Nc1ccc(Br)cn1`, the “% Inhibition” value is -8% and the Z score is given as 0.98.
In the same order, the values of `CCCC(=O)N1CCC(OC(=O)c2c(C)nn(C)c2OC)CC1` are -7% and 0.6.
The corresponding values for `CCn1ncc(-c2ccnc3cc(C(=O)Nc4ccc(C(C)C)cc4)nn23)c1C` are 3% and -0.32.
The corresponding values for `C[C@@]1(C(=O)NCc2ccccc2)Cn2nc(-c3cccs3)cc2C(=O)N1Cc1cccnc1` are 2% and -0.37.
In the case of `Cc1ccc(NC(=O)c2ccc(N3CCOCC3)nn2)cc1Cl`, the “% Inhibition” value was 0% and the Z score is on record as 0.
Take `CCc1nnc(CN2C(=O)C[C@](C)(c3ccc(C)cc3)C2=O)o1`: the “% Inhibition” value is listed as -4% and the Z score is recorded as 0.39.
Take `CCOc1ccc(NC(=O)N2CCc3c([nH]c4ccc(OC)cc34)[C@H]2c2ccc(F)cc2)cc1`: the “% Inhibition” value is 12% and the Z score is recorded as -1.4.
Take `CN(C)C1(CNc2cc(-c3ccccc3F)nc3ccnn23)CCOCC1`: the “% Inhibition” value is recorded as -10% and the Z score amounted to 1.39.
For the molecule `O=C(NCCc1csc(-c2ccccc2)n1)C1CCN(C(=O)c2ccc(F)c(F)c2)CC1`, the “% Inhibition” value is -8% and the Z score is 0.99.
In the same order, the values of `Cc1ccoc1CNC(=O)N1CCC2(CCC2)S(=O)(=O)CC1` are -1% and 0.19.
`O=C(Nc1ccc(-n2nncc2-c2ccco2)cc1)c1ccc(F)cc1`: the “% Inhibition” value is -3% and the Z score is on record as 0.35.
With `COC(=O)C1CCN(c2nc(N3CCCC3)nc(N3CCCC3)n2)CC1`, the “% Inhibition” value was -14% and the Z score is reported as 2.26.
As for `Cn1nnnc1NC(=O)[C@H]1C2CCC(CC2)[C@@H]1C(F)(F)F`, the “% Inhibition” value was -9% and the Z score is recorded as 1.42.
The corresponding values for `Cc1nsc(NC(=O)C[C@H]2CCCC(C)(C)C2)c1C#N` are -12% and 1.66.
The corresponding values for `Cn1cc(CCC(=O)N2CCC3(CC2)[C@H](O)C[C@@H]3O)cn1` are -6% and 0.97.
As to `Cc1ccc(F)c(OC2(C(=O)O)CCN(Cc3ccoc3)CC2)c1`, the “% Inhibition” value is -5% and the Z score came to 0.98.
In the same order, the values of `CCS(=O)(=O)CCn1nnc(-c2ccco2)n1` are -7% and 1.3.
The corresponding values for `Cc1ccc(NC(=O)c2ccnc(C(F)(F)F)c2)cc1OCC1CCOCC1` are -13% and 1.07.
On to `Cc1cccc(C(=O)Nc2ccccc2C(=O)OCc2nc(C)no2)c1`, for which the “% Inhibition” value is -16% and the Z score turned out to be 2.09.
The corresponding values for `Cn1cc(CCC(=O)N2CCc3cc4ccc3[C@@H]2c2cccc(c2)OCCCn2cc(nn2)CO4)cn1` are -11% and 1.25.
`O=S(=O)(Oc1cccc(-c2nnco2)c1)c1ccc2ccccc2c1`: the “% Inhibition” value was -1% and the Z score was found to be 0.11.

The values above are taken from ChEMBL document CHEMBL4888484, “Replenishing the malaria drug discovery pipeline: Screening and hit evaluation of the MMV Hit Generation Library 1 (HGL1) against asexual blood stage Plasmodium falciparum ,using a nano luciferase reporter read-out” (2022).
